Results reported in ChEMBL document CHEMBL3871281, “Improved binding affinities of pyrrolidine derivatives as Mcl-1 inhibitors by modifying amino acid side chains” (Bioorg Med Chem, 2017).

Assays:
[1] = biological target: Induced myeloid leukemia cell differentiation protein Mcl-1 (Homo sapiens, UniProt Q07820)
[2] = biological target: Apoptosis regulator Bcl-2 (Homo sapiens, UniProt P10415); assay: Inhibition of 5-FAM-QEDIIRNIARHLAQVGDSMDRSIPPG binding to Bcl-2 (unknown origin) preincubated for 30 mins followed by FAM-labeled peptide addition measured after 20 mins by fluorescence polarization assay
Sequence of UniProt P10415 (P10415 whole entry): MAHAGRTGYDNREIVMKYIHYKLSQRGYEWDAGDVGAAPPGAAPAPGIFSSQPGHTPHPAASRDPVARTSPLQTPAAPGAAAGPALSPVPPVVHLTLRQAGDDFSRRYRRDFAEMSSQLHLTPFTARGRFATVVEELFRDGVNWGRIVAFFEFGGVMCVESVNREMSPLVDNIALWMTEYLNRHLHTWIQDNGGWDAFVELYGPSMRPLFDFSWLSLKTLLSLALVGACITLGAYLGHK

[3] = Antiproliferative activity against human MDA-MB-231 cells measured after 48 hrs by MTT assay; format: functional, cell-based; conditions: MDA-MB-231, 48 h
[4] = Antiproliferative activity against human PC3 cells measured after 48 hrs by MTT assay; format: functional, cell-based; conditions: PC-3, 48 h
[5] = Antiproliferative activity against human K562 cells measured after 48 hrs by MTT assay; format: functional, cell-based; conditions: K562, 48 h

Sequence of UniProt Q07820 (Q07820 whole entry): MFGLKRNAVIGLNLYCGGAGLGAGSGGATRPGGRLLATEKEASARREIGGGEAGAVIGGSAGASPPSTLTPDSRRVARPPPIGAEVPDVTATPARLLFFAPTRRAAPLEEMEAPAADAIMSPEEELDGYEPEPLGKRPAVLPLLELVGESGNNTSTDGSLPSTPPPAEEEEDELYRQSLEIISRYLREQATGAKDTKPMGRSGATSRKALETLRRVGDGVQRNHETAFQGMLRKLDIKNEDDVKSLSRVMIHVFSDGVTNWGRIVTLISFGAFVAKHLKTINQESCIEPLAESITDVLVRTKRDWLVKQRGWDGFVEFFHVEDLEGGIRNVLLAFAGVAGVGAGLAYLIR

| SMILES | Ki [1] [µM] | Ki [2] [µM] | IC50 [3] [µM] | IC50 [4] [µM] | IC50 [5] [µM] |
| --- | --- | --- | --- | --- | --- |
| Cc1ccc(-c2ccc(O[C@H]3C[C@@H](C(=O)N[C@@H](Cc4ccc(OCC(C)C)cc4)C(=O)NS(=O)(=O)c4ccc([N+](=O)[O-])cc4)N(C(=O)OC(C)(C)C)C3)cc2)cc1 | 0.79 |  |  |  |  |
| CC(C)(C)OC(=O)N1C[C@@H](Oc2ccc(-c3ccccc3)cc2)C[C@H]1C(=O)N[C@@H](Cc1ccc(OCc2ccc(Br)cc2)cc1)C(=O)NS(=O)(=O)c1ccc(Cl)c([N+](=O)[O-])c1 |  | 0.68 | 21.3 | 10.6 | 16.4 |
| CC(C)Oc1ccc(C[C@H](NC(=O)[C@@H]2C[C@H](Oc3ccc(-c4ccccc4)cc3)CN2C(=O)OC(C)(C)C)C(=O)NS(=O)(=O)c2ccccc2)cc1 | 8.1 |  |  |  |  |
| CCCOc1ccc(C[C@H](NC(=O)[C@@H]2C[C@H](Oc3ccc(-c4ccccc4)cc3)CN2C(=O)OC(C)(C)C)C(=O)NS(=O)(=O)c2ccccc2)cc1 | 4 |  |  |  |  |
| Cc1ccc(-c2ccc(O[C@H]3C[C@@H](C(=O)N[C@@H](Cc4ccc(OCc5ccc([N+](=O)[O-])cc5)cc4)C(=O)NS(=O)(=O)c4ccc(Cl)c([N+](=O)[O-])c4)N(C(=O)OC(C)(C)C)C3)cc2)cc1 |  | 0.75 | 16.9 | 8.45 | 16.6 |
| Cc1ccc(-c2ccc(O[C@@H]3CN[C@H](C(=O)N[C@@H](Cc4ccccc4)C(=O)NS(=O)(=O)c4ccc(Cl)c([N+](=O)[O-])c4)C3)cc2)cc1 | 1.3 |  |  |  |  |
| CC(C)COc1ccc(C[C@H](NC(=O)[C@@H]2C[C@H](Oc3ccc(-c4ccccc4)cc3)CN2C(=O)OC(C)(C)C)C(=O)NS(=O)(=O)c2ccccc2)cc1 | 2 |  |  |  |  |
| CC(C)(C)OC(=O)N1C[C@@H](Oc2ccc(-c3ccccc3)cc2)C[C@H]1C(=O)N[C@@H](Cc1ccc(O[Si](C)(C)C(C)(C)C)cc1)C(=O)NS(=O)(=O)c1ccc(Cl)c([N+](=O)[O-])c1 |  | 0.93 | 23.4 | 10.2 | 17.3 |
| CC(C)(C)OC(=O)N1C[C@@H](Oc2ccc(-c3ccc(Cl)cc3)cc2)C[C@H]1C(=O)N[C@@H](Cc1ccc(OCCc2ccccc2)cc1)C(=O)NS(=O)(=O)c1ccc(Cl)c([N+](=O)[O-])c1 |  | 0.67 | 25.2 | 13.2 | 17.8 |
| CCCOc1ccc(C[C@H](NC(=O)[C@@H]2C[C@H](Oc3ccc(-c4ccc(C)cc4)cc3)CN2C(=O)OC(C)(C)C)C(=O)NS(=O)(=O)c2ccc([N+](=O)[O-])cc2)cc1 | 0.9 |  |  |  |  |
| Cc1cc2c(C(C)C)c(O)c(O)c(C=O)c2c(O)c1-c1c(C)cc2c(C(C)C)c(O)c(O)c(C=O)c2c1O [GOSSYPOL] |  |  | 9.23 | 7.54 | 5.6 |
